This is one part of the list. No stated cut-off is given here; in the data, active = 3.2 or more and inactive = the rest. Most of these values are background signal.
Legend:
Test in all cases: enrichment score (SH2-bound / input frequency) (ratio); bacterial display of known human phosphotyrosine sites (pTyr-Var adds point mutants) read by sequencing; higher = stronger binding; tyrosines were phosphorylated by kinases first
Conditions in all cases: peptide library: pTyr-Var
SHP2 C-SH2 domain E139D = biological target: SHP2 C-SH2 domain E139D
[1] = biological target: SHP2 C-SH2 domain wild-type
SHP2 N-SH2 domain L43F = biological target: SHP2 N-SH2 domain L43F
SHP2 N-SH2 domain T42A = biological target: SHP2 N-SH2 domain T42A
SHP2 N-SH2 domain T52S = biological target: SHP2 N-SH2 domain T52S
[2] = biological target: SHP2 N-SH2 domain wild-type

Measured: enrichment score
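Further: displayed peptides selected on beads carrying the immobilized SH2 domain, with library peptides lacking any tyrosine serving as negative controls.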

GKFHMYVAVWT [F13A1_Y161_R159H]
inactive: SHP2 C-SH2 domain E139D 0.402 | [1] 0.746 | SHP2 N-SH2 domain L43F 0.565 | SHP2 N-SH2 domain T42A 0.456 | SHP2 N-SH2 domain T52S 0.552 | [2] 0.892

HSHTRYERNIE [F2_Y434_R431H]
inactive: SHP2 C-SH2 domain E139D 2.22 | [1] 1.63 | SHP2 N-SH2 domain L43F 1.82 | SHP2 N-SH2 domain T42A 1.96 | SHP2 N-SH2 domain T52S 1.98 | [2] 2.27

LSSEMYVKSYT [F5_Y2149]
inactive: SHP2 C-SH2 domain E139D 0.795 | [1] 0.787 | SHP2 N-SH2 domain L43F 0.771 | SHP2 N-SH2 domain T42A 0.655 | SHP2 N-SH2 domain T52S 0.79 | [2] 0.905

LSSETYVKSFT [F5_Y2149_M2148T_YF]
inactive: SHP2 C-SH2 domain E139D 0.833 | [1] 1.12 | SHP2 N-SH2 domain L43F 0.818 | SHP2 N-SH2 domain T42A 0.751 | SHP2 N-SH2 domain T52S 0.623 | [2] 0.662

LSSEMYVKSFT [F5_Y2149_YF]
inactive: SHP2 C-SH2 domain E139D 0.971 | [1] 1.23 | SHP2 N-SH2 domain L43F 0.941 | SHP2 N-SH2 domain T42A 0.864 | SHP2 N-SH2 domain T52S 0.85 | [2] 1.14

MCVKSYTIHYS [F5_Y2153_Y2149C]
inactive: SHP2 C-SH2 domain E139D 1.02 | [1] 1.04 | SHP2 N-SH2 domain L43F 0.986 | SHP2 N-SH2 domain T42A 0.921 | SHP2 N-SH2 domain T52S 0.822 | [2] 1.23

MCVKSYTIHFS [F5_Y2153_Y2149C_YF]
inactive: SHP2 C-SH2 domain E139D 0.972 | [1] 1.11 | SHP2 N-SH2 domain L43F 1.06 | SHP2 N-SH2 domain T42A 0.879 | SHP2 N-SH2 domain T52S 0.858 | [2] 1.17

ERLWDYGMSSS [F8_Y1728]
inactive: SHP2 C-SH2 domain E139D 0.937 | [1] 0.881 | SHP2 N-SH2 domain L43F 0.938 | SHP2 N-SH2 domain T42A 0.82 | SHP2 N-SH2 domain T52S 0.834 | [2] 0.991

KRLWDYGMSSS [F8_Y1728_E1723K]
inactive: SHP2 C-SH2 domain E139D 1.14 | [1] 0.974 | SHP2 N-SH2 domain L43F 0.911 | SHP2 N-SH2 domain T42A 0.986 | SHP2 N-SH2 domain T52S 0.973 | [2] 1.03

ERLWDCGMSSS [F8_Y1728_Y1728C]
inactive: SHP2 C-SH2 domain E139D 0.92 | [1] 0.678 | SHP2 N-SH2 domain L43F 0.739 | SHP2 N-SH2 domain T42A 0.659 | SHP2 N-SH2 domain T52S 0.686 | [2] 0.728

RKKEEYKMALY [F8_Y1990]
inactive: SHP2 C-SH2 domain E139D 1.14 | [1] 0.779 | SHP2 N-SH2 domain L43F 0.823 | SHP2 N-SH2 domain T42A 0.951 | SHP2 N-SH2 domain T52S 1.27 | [2] 0.951

RKKEEYKMAPY [F8_Y1990_L1994P]
inactive: SHP2 C-SH2 domain E139D 0.681 | [1] 0.514 | SHP2 N-SH2 domain L43F 0.699 | SHP2 N-SH2 domain T42A 0.558 | SHP2 N-SH2 domain T52S 0.551 | [2] 0.481

RKKEEYKMAPF [F8_Y1990_L1994P_YF]
inactive: SHP2 C-SH2 domain E139D 0.617 | [1] 0.461 | SHP2 N-SH2 domain L43F 0.328 | SHP2 N-SH2 domain T42A 0.351 | SHP2 N-SH2 domain T52S 0.496 | [2] 0.38

QKKEEYKMALF [F8_Y1990_R1985Q_YF]
inactive: SHP2 C-SH2 domain E139D 0.799 | [1] 0.6 | SHP2 N-SH2 domain L43F 0.686 | SHP2 N-SH2 domain T42A 0.659 | SHP2 N-SH2 domain T52S 0.796 | [2] 0.623

RIGRKYKKVRF [F8_Y442]
inactive: SHP2 C-SH2 domain E139D 0.26 | [1] 0.244 | SHP2 N-SH2 domain L43F 0.378 | SHP2 N-SH2 domain T42A 0.235 | SHP2 N-SH2 domain T52S 0.191 | [2] 0.135

RIDRKYKKVRF [F8_Y442_G439D]
inactive: SHP2 C-SH2 domain E139D 0.372 | [1] 0.231 | SHP2 N-SH2 domain L43F 0.227 | SHP2 N-SH2 domain T42A 0.365 | SHP2 N-SH2 domain T52S 0.323 | [2] 0.338

RIVRKYKKVRF [F8_Y442_G439V]
inactive: SHP2 C-SH2 domain E139D 0.199 | [1] 0.348 | SHP2 N-SH2 domain L43F 0.237 | SHP2 N-SH2 domain T42A 0.271 | SHP2 N-SH2 domain T52S 0.332 | [2] 0.295

PIGRKYKKVRF [F8_Y442_R437P]
inactive: SHP2 C-SH2 domain E139D 0.242 | [1] 0.346 | SHP2 N-SH2 domain L43F 0.498 | SHP2 N-SH2 domain T42A 0.296 | SHP2 N-SH2 domain T52S 0.26 | [2] 0.203

From the supplement of paper PMC10369915
